# Source: PubChem BioAssay AID686971 (National Center for Advancing Translational Sciences (NCATS), 2013)
# Hit rate of the full screen: of about 360,000 compounds, about 7,500 (2.1%) were called active. This list was built around the results that the source calls inconclusive (neither active nor inactive); the mix of calls is not that of the screen. The call rests on the fitted dose curve; in most records, active means well fitted cell-killing curve with a large enough effect; inconclusive means small, poorly fitted or top-dose-only effect, or effect the other way, or another doubt; inactive means no such curve, though single readings can be large or run the other way. No potency is given beside an inconclusive call; the fits are too rough.
# Assay: qHTS for induction of synthetic lethality in tumor cells producing 2HG: qHTS for the HT-1080-IDH1KD cell line;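 on activity, negative = toxicity: 0% = DMSO wells and -100% = cell-free medium wells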
# Conditions: HT-1080 IDH1 knockdown viability, ATP luminescence, 48 h; activity, negative = toxicity: at 46.1 µM (top of the series) unless noted
# In short: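 Using the IDH1-knockdown HT-1080 line run in the same batch and compound series as the NT line, viability after 48 h at 37 °C was determined by CellTiter-Glo luminescence and expressed as % activity.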
# Potency means the concentration at half of the fitted maximal effect; tags describe the fitted curve by direction and shape.
SMILES,Potency,"activity, negative = toxicity"
NC(=O)c1ccsc1NC(=O)c1ccc2c(c1)CCCC2,"inconclusive [cytotoxic, single point]",
O=C1c2ccccc2C(=O)N1CCc1c(-c2ccccc2)[nH]c2ccccc12,"inconclusive [cytotoxic, single point]",
C=CC[C@@H](Cc1ccc(F)cc1)C(=O)OC[C@H]1CCCN1C(=O)[C@H](CC=C)CC(=O)NCCO,inactive,
CCN1C(=O)[C@H]2[C@@H](c3ccc(Cl)cc3)N3C(=O)CN(CC4CC4)C(=O)[C@@]3(Cc3ccccc3)[C@H]2C1=O,inactive,
COc1ccc(C2CC(O)(c3ccccc3)Oc3cc(OC)ccc32)cc1 (configuration not stated),"inconclusive [cytotoxic, single point]",
Fc1ccc(-c2csc3ncnc(Nc4ccc(N5CCOCC5)cc4)c23)cc1,"inconclusive [cytotoxic, single point]",
O=C1C(=NO)C(c2ccccc2)Oc2ccccc21 (configuration not stated),,inconclusive: -20.1% [cytotoxic]
CSc1cccc(NC(=O)c2ccc(CN3CCc4ccccc4C3)cc2)c1,"inconclusive [cytotoxic, partial curve]",
Oc1ccc(F)cc1-c1cc(-c2ccc3c(c2)OCCO3)n[nH]1,"inconclusive [cytotoxic, single point]",
COc1ccc(N2CC(C(=O)NCCc3ccc(Cl)cc3)CC2=O)c(OC)c1 (configuration not stated),,inconclusive: -36.3% [cytotoxic]
CCOc1ccccc1NC(=O)CSc1nc2cc(O)ccc2c(=O)n1-c1ccc(OC)c(OC)c1,"inconclusive [cytotoxic, single point]",
COc1ccc(-n2nnc3c(SCC(=O)c4ccccc4)ncnc32)cc1,"inconclusive [rising, partial curve]",
O=C(Cc1ccc([N+](=O)[O-])cc1)N1CCCc2ccccc21,inactive,
CCOc1ccc(CN(C)C(=O)CNC(=O)c2cc(OC)c(OC)c(OC)c2)cc1,inactive,
Cc1cc(C)n(-c2ccc(C(=O)Nc3ccc(C)c(S(=O)(=O)N(C)C)c3)cc2)n1,"inconclusive [cytotoxic, single point]",
C#CCNC(=O)C1=C[C@H](c2ccc(Br)cc2)[C@@H](CCCO)[C@H](OCC)O1,inactive,
O=C1/C(=C/c2cccnc2)CCc2c1[nH]c1ccccc21,active: 13 µM,
S=C(Nc1ccccn1)NC1CCCCC1,"inconclusive [cytotoxic, single point]",
O=C(Cn1cnc2ccccc21)N/N=C/C(Br)=C/c1ccccc1,"inconclusive [cytotoxic, single point]",
Cc1ccc(-c2nn(C)c(=O)c3ccccc23)cc1CN1CCCCC1,inactive,
CC1CCC(NC(=O)COc2ccc(C(=O)c3ccccc3)cc2)CC1 (configuration not stated),"inconclusive [cytotoxic, single point]",
Cc1ccc(O)c(-c2cc(C(F)(F)C(F)F)[nH]n2)c1,"inconclusive [cytotoxic, single point]",
Cc1ccc(CNCCC2=CCCCC2)cc1,"inconclusive [cytotoxic, single point]",
Cc1ccc(SC(=O)c2c([N+](=O)[O-])c(C)nn2C)cc1,"inconclusive [cytotoxic, single point]",

SMILES,Potency,"activity, negative = toxicity"
Cc1ccc(C(=O)Nc2sc3c(c2C(=O)O)CCC(C)C3)o1 (configuration not stated),"inconclusive [cytotoxic, partial curve]",
O=C1CCCC2=C1C1c3ccccc3C(=O)N1c1ccc(C(=O)c3ccccc3)cc1N2 (configuration not stated),"inconclusive [cytotoxic, single point]",
O=C1C=C(NCc2ccc3c(c2)OCO3)CC(c2ccccc2)C1 (configuration not stated),"inconclusive [cytotoxic, single point]",
O=C(CCSc1ccc(Cl)c(Cl)c1)NC12CC3CC(CC(C3)C1)C2,inactive,
NS(=O)(=O)c1ccc(NC(=S)N2CCN(c3ccc(Cl)c(Cl)c3)CC2)cc1,"inconclusive [cytotoxic, partial curve]",
Cc1ccc(C(=O)Nc2cccc(C(=O)NC3CCCCC3)c2)cc1,"inconclusive [cytotoxic, single point]",
COc1cccc(N2CCN(C(=O)c3ccc(CS(=O)c4ccc(C)cc4)o3)CC2)c1 (configuration not stated),active: 0.291 µM,
CCOc1ccccc1NC(=O)N1CCc2ccccc2C1,inactive,
O=C(CN1CCN(S(=O)(=O)c2ccccc2)CC1)Nc1ccc([N+](=O)[O-])cc1,"inconclusive [cytotoxic, partial curve]",
COc1ccc(C(NC(=O)C2CCN(CCOc3ccc(F)cc3)CC2)c2cccs2)cc1 (configuration not stated),"inconclusive [cytotoxic, single point]",
Cc1nn(-c2ccccc2)c(Cl)c1/C=C/C(=O)c1ccccc1,"inconclusive [cytotoxic, single point]",
CN1C(=O)c2ccc(NC(=O)CCS(=O)(=O)c3ccccc3)cc2C1=O,inactive,
O=C(Nc1ccc(S(=O)(=O)N2CCCC2)cc1)c1ccc([N+](=O)[O-])o1,active: 14.6 µM,
Cc1ccccc1S(=O)(=O)Nc1nc2ccccc2nc1N1CCOCC1,inactive,
Clc1ccccc1-c1cnc2sc(NCc3ccc4c(c3)OCO4)nn12,"inconclusive [cytotoxic, partial curve, poor fit]",
CN1c2ccsc2/C(=N/Nc2ccc(F)cc2)CS1(=O)=O,"inconclusive [cytotoxic, full curve]",
CN(C)S(=O)(=O)c1cccc(N=c2scc(-c3ccc4c(c3)NC(=O)CO4)n2CC2CCCO2)c1 (configuration not stated),"inconclusive [cytotoxic, partial curve]",
O=C1COc2ccc(S(=O)(=O)N3CCN(c4cccc(C(F)(F)F)c4)CC3)cc2N1,inactive,
COC(=O)c1ccc2cc(OC)c(OC)cc2c1,,inconclusive: -5.93% [cytotoxic]
CCOC(=O)C1CCN(c2nc3cc(OC)ccc3cc2C#N)CC1,inactive,
Cc1ccc(C(C)C)c(OCCNCc2ccccc2)c1,inactive,
Cc1sc2ncnc(SCC(=O)NCC3CCCO3)c2c1C (configuration not stated),inactive,
O=C1CSC(=S)N1N=Cc1c(O)ccc2ccccc12,"inconclusive [cytotoxic, partial curve]",
O=[N+]([O-])c1cccc(C2Nc3ccccc3CO2)c1 (configuration not stated),"inconclusive [cytotoxic, partial curve]",

SMILES,Potency,"activity, negative = toxicity"
COc1cc(Cl)c(C)cc1NC(=O)CNC(C)c1ccccc1OC (configuration not stated),"inconclusive [cytotoxic, single point]",
Cc1ccc2c(c1)Oc1ccc([N+](=O)[O-])cc1C(=O)N2,inactive,
Cc1c(C(=O)Nc2nccs2)sc2nc(-c3cccs3)cc(C(F)(F)F)c12,"inconclusive [cytotoxic, full curve]",
CC(=NCCc1c(C)[nH]c2ccc(OC(F)(F)F)cc12)C1=C(O)CC(c2ccccc2)CC1=O (configuration not stated),"inconclusive [cytotoxic, single point]",
C=CCN(c1ccc(C(=O)NCCCn2ccnc2)cc1)S(C)(=O)=O,inactive,
COc1cc(C(O)c2nc(/C=C/c3ccc(C(F)(F)F)cc3)cs2)ccc1F (configuration not stated),"inconclusive [cytotoxic, single point]",
C[C@@H]1CN([C@H](C)CO)C(=O)CCCn2nncc2CO[C@H]1CN(C)Cc1cccc(O)c1,inactive,
CC#Cc1cc2c(cc1O)CCC1C2CCC2(C)C(O)CCC12 (configuration not stated),"inconclusive [cytotoxic, partial curve]",
C=C1CCC[C@]2(C)C[C@H]3OC(=O)C(CNCCN(C)C)[C@H]3CC12 (some centres not stated),"inconclusive [cytotoxic, single point]",
O=C1/C(=C/c2ccccc2[N+](=O)[O-])COc2ccccc21,active: 18.4 µM,
O=C(COc1ccc2ccccc2c1Br)NC(=S)Nc1cccc(CO)c1,"inconclusive [cytotoxic, single point]",
COC(=O)c1ccccc1NC(=O)Cn1c(-c2nonc2N)nc2ccccc21,active: 0.316 µM,
CCOC(CNc1c([N+](=O)[O-])c(=O)n(C)c(=O)n1C)OCC,,inconclusive: 31.3%
Cc1nn(-c2ccccc2)c(C)c1/C=N/NC(=O)c1cc(-c2ccccc2)n[nH]1,"inconclusive [cytotoxic, full curve]",
COCCNc1nc(NCc2ccc(NC(C)=O)cc2)c2sc(-c3ccccc3)cc2n1,"inconclusive [cytotoxic, full curve]",
Cc1cc(C)nc(SSc2nc(C)cc(C)n2)n1,"inconclusive [cytotoxic, single point]",
CCC(=O)Nc1ccc(NC(=O)CSc2nnnn2Cc2ccccc2)cc1C,inactive,
COc1cc(C(=O)N/N=C(\C)c2ccccn2)cc(OC)c1OC,"inconclusive [cytotoxic, full curve]",
CCCCNc1nc(Nc2ccc(C)c(Cl)c2)c2cnn(C)c2n1,inactive,
COc1ccc2nc(C)cc(N/N=C/c3cccc(OC)c3O)c2c1,active: 16.4 µM,
Cc1ccc(NC(=O)c2cc(-c3ccccc3O)n[nH]2)cc1Cl,inactive,
COc1ccc(CCCC(=O)NCc2ccccc2)cc1C,"inconclusive [cytotoxic, single point]",
COC(=O)C(Cc1cncn1COCc1ccccc1)NC(=O)OC(C)(C)C (configuration not stated),inactive,
COc1ccc(/C=C2/Sc3ccc(C(=O)NCCCN4CCOCC4)cc3NC2=O)cc1OC,active: 20.6 µM,
